{
  "source": "patent US20200400567A1",
  "about": "“FUSION POLYPEPTIDE” (PEKING UNIVERSITY, priority 2017, published 2020)",
  "molecules": {"B1": {"name": "GRAB-NE2.2: GRAB-NE2.1 with T373K mutation, SEQ ID NO: 24 (protein)", "chain": "METDTLLLWVLLLWVPGSTGDTSLYKKVGTTGGSLQPDAGNASWNGTEAPGGGARATPYSLQVTLTLVCLAGLLMLLTVFGNVLVIIAVFTSRALKAPQNLFLVSLASADILVATLVIPFSLANEVMGYWYFGKAWCEIYLALDVLFCTSSIVHLCAISLDRYWSITQAIEYNLKRTPRRIKAIIITVWVISAVISFPPLISIEKKGGGGGPQPAEPRCEINDQKWYVISSCIGSFFAPCLIMILVYVRIYQIAKRRTRVPPSRRGPDAVAAPPGGTERRPNGLGPERSAGPGGAEAEPLPTQLNGAPGEPAPAGPRDTDALDLEEGGNVYIKADKQKNGIKANFHIRHNIEDGGVQLAYHYQQNTPIGDGPVLLPDNHYLSVQSKLSKDPNEKRDHMVLLEFVTAAGITLGMDELYKGGTGGSMVRKGEELFTGVVPILVELDGDVNGHKFSVSGEGEGDATYGKLTLKFICTTGKLPVPWPTLVTTLTYGVQCFSRYPDHMKQHDFFKSAMPEGYIQERTIFFKDDGNYKTRAEVKFEGDTLVNRIELKGIDFKEDGNILGHKLEYNTGAAARWRGRQNREKRFKFVLAVVIGVFVVCWFPFFFTYTLTAVGCSVPRTLFKFFFWFGYCNSSLNPVIYTIFNHDFRRAFKKILCRGDRKRIVL", "modifications": "GRAB-NE2.2"}, "B2": {"name": "GRAB-NE2.1: GRAB-NE2.0 with peptide linker GG-TGAAA, SEQ ID NO: 23 (protein)", "chain": "B1 chain with K587T", "modifications": "GRAB-NE2.1"}, "B3": {"name": "GRAB-Oxt-Cter580: GRAB-ACh-Cter580 C-terminus from C1 site inserted after 353 K of OxtR, SEQ ID NO: 21 (protein)", "chain": "METDTLLLWVLLLWVPGSTGDTSLYKKVGTEGALAANWSAEAANASAAPPGAEGNRTAGPPRRNEALARVEVAVLCLILLLALSGNACVLLALRTTRQKHSRLFFFMKHLSIADLVVAVFQVLPQLLWDITFRFYGPDLLCRLVKYLQVVGMFASTYLLLLMSLDRCLAICQPLRSLRRRTDRLAVLATWLGCLVASAPQVHIFSLREVADGVFDCWAVFIQPWGPKAYITWITLAVYIVPVIVLAACYGLISFKIWQNLRLKTAAAAAAEAPEGAAAGDGGRVALARVSSVKLISKAKIRTVKMTFIIVLAFIVCWTPFFFVQMWSVWDANAPKEASAFIIVMLLASLNSCCNPWIYMLFTGHLFHELVQRFLCCSASYLKKRRKQQYQQRQSVIGGNVYIKADKQKNGIKANFHIRHNIEDGGVQLAYHYQQNTPIGDGPVLLPDNHYLSVQSKLSKDPNEKRDHMVLLEFVTAAGITLGMDELYKGGTGGSMVRKGEELFTGVVPILVELDGDVNGHKFSVSGEGEGDATYGKLTLKFICTTGKLPVPWPTLVTTLTYGVQCFSRYPDHMKQHDFFKSAMPEGYIQERTIFFKDDGNYKTRAEVKFEGDTLVNRIELKGIDFKEDGNILGHKLEYNGGAAAFHKRAPEQALVFAAVKDTILQLNLKEYNLVKSRITSEGEYIPLDQIDINVNSFCYENEVALT", "modifications": "GRAB-Oxt-Cter580"}, "B4": {"name": "GRAB-DA-Cter580: GRAB-ACh-Cter580 C-terminus from C2 site inserted after 441 L of DRD2, SEQ ID NO: 18 (protein)", "chain": "METDTLLLWVLLLWVPGSTGDTSLYKKVGTDPLNLSWYDDDLERQNWSRPFNGSDGKADRPHYNYYATLLTLLIAVIVFGNVLVCMAVSREKALQTTTNYLIVSLAVADLLVATLVMPWVVYLEVVGEWKFSRIHCDIFVTLDVMMCTASILNLCAISIDRYTAVAMPMLYNTRYSSKRRVTVMISIVWVLSFTISCPLLFGLNNADQNECIIANPAFVVYSSIVSFYVPFIVTLLVYIKIYIVLRRRRKRVNTKRSSRAFRAHLRAPLKGNCTHPEDMKLCTVIMKSNGSFPVNRRRVEAARRAQELEMEMLSSTSPPERTRYSPIPPSHHQLTLPDPSHHGLHSTPDSPAKPEKNGHAKDHPKIAKIFEIQTMPNGKTRTSLKTMSRRKLSQQKEKKATQMLAIVLGVFIICWLPFFITHILNIHCDCNIPPVLYSAFTWLGYVNSAVNPIIYTTFNIEFRKAFLKILRRKQQYQQRQSVIGGNVYIKADKQKNGIKANFHIRHNIEDGGVQLAYHYQQNTPIGDGPVLLPDNHYLSVQSKLSKDPNEKRDHMVLLEFVTAAGITLGMDELYKGGTGGSMVRKGEELFTGVVPILVELDGDVNGHKFSVSGEGEGDATYGKLTLKFICTTGKLPVPWPTLVTTLTYGVQCFSRYPDHMKQHDFFKSAMPEGYIQERTIFFKDDGNYKTRAEVKFEGDTLVNRIELKGIDFKEDGNILGHKLEYNGGAAAFHKRAPEQALVFAAVKDTILQLNLKEYNLVKSRITSEGEYIPLDQIDINVNSFCYENEVALT", "modifications": "GRAB-DA-Cter580"}, "B5": {"name": "GRAB-5HT-Cter580: GRAB-ACh-Cter580 C-terminus from C2 site inserted after 334Y of HTR4, SEQ ID NO: 20 (protein)", "chain": "METDTLLLWVLLLWVPGSTGDTSLYKKVGTDKLDANVSSNEGFRSVEKVVLLTFLAVVILMAILGNLLVMVAVCRDRQLRKIKTNYFIVSLAFADLLVSVLVMPFGAIELVQDIWAYGEMFCLVRTSLDVLLTTASIFHLCCISLDRYYAICCQPLVYRNKMTPLRIALMLGGCWVLPMFISFLPIMQGWNNIGIVDVIEKRKFSHNSNSTWCVFMVNKPYAITCSVVAFYIPFLLMVLAYYRIYVTAKEHAQQIQMLQRAGATSESRPQPADQHSTHRMRTETKAAKTLCVIMGCFCFCWAPFFVTNIVDPFIDYTVPEQVWTAFLWLGYINSGLNPFLYAFLNKSFRRAFLIILCCDDERYRKQQYQQRQSVIGGNVYIKADKQKNGIKANFHIRHNIEDGGVQLAYHYQQNTPIGDGPVLLPDNHYLSVQSKLSKDPNEKRDHMVLLEFVTAAGITLGMDELYKGGTGGSMVRKGEELFTGVVPILVELDGDVNGHKFSVSGEGEGDATYGKLTLKFICTTGKLPVPWPTLVTTLTYGVQCFSRYPDHMKQHDFFKSAMPEGYIQERTIFFKDDGNYKTRAEVKFEGDTLVNRIELKGIDFKEDGNILGHKLEYNGGAAAFHKRAPEQALVFAAVKDTILQLNLKEYNLVKSRITSEGEYIPLDQIDINVNSFCYENEVALT", "modifications": "GRAB-5HT-Cter580"}},
  "key": {"[1]": {"molecular_target": "human ADRA2A receptor", "assay_type": "cell-based", "protocol": "The perfusion system was set on a microscope, and including a solution-introduced system, an imaging cell, and a suction pump. During the perfusion process, the imaging cell was placed above the objective lens of the inverted microscope, and the slide with cultured cells was placed in the cell. The perfusion experiments of different drugs were performed by controlling the switches of the different pipes of the solution-introduced system. The perfusion speed was set to one drop or so per second. In order to ensure the stability of the focal plane, the liquid level was kept constant at all times, and the flow rate of each solution was adjusted accordingly. The aspiration speed was adjusted to maintain the liquid level in the cell over the slide. […]\nAfter the end of the program, the time-fluorescence intensity data sheet was exported. The background was subtracted from the ROI to get the corresponding fluorescence value Ft, and the average value of the fluorescence value before adding the drug was used as the starting fluorescence F0 to calculate […]\nFluorescence imaging data was processed using ImageJ software. For the fluorescence performance of GRAB sensors in HEK293T cells and neurons, the entire cell body was selected as the data processing region. The change in the fluorescence signal was usually indicated by its relative intensity change. […]"}, "[2]": {"test_system": "human ADRA2A receptor", "test": "Response kinetics of GRAB-NE2.2 by photolysis of NPEC-caged-NE", "assay_type": "cell-based", "settings": "405 nm photolysis of 100 μM NPEC-NE"}, "[3]": {"test_system": "human ADRA2A receptor", "test": "GRAB-NE2.1 in cultured rat cortical neurons, drug perfusion", "assay_type": "cell-based"}, "[4]": {"test_system": "human ADRA2A receptor", "test": "GRAB-NE2.1 in primary cultured rat cardiomyocytes, drug perfusion", "assay_type": "cell-based", "text": "The GRAB-NE2.1 sensor was transfected into primary cultured rat cardiomyocytes by liposomes, and the optical signal changes for the ligand binding and affinity for ligand were detected by drug perfusion."}, "[5]": {"test_system": "G protein-coupled receptor (M3R, HRH1, OxtR, DRD2, B2AR, HTR4)", "test": "GRAB sensors with fluorescent protein at the GPCR C-terminus, perfusion with receptor agonists in HEK293T cells", "assay_type": "cell-based, human", "text": "(§1) Based on the previously constructed acetylcholine fluorescent sensor GRAB-ACh2.0, the portion of the polypeptide linkers and cpEGFP in the third intracellular loop was inserted after the position 580 of the C-terminus sequence of the human muscarinic acetylcholine receptor M3R protein, and Gq20 peptide segment and TS and ER export sequences were connected to the end of the M3R protein to obtain a fusion peptide acetylcholine sensor GRAB-ACh-Cter580 with a fluorescent protein fused at the C-terminus.\n(§2) Next, the method of constructing a chimeric receptor was used to construct fusion polypeptide sensors with a fluorescent protein at the C-terminus of different G protein-coupled receptors. The three sites, K567, R568 and R569, at the C-terminus of GRAB-ACh-Cter580 were selected as the cutting sites and labeled as C1, C2 and C3, respectively. After cutting, the multiple C-terminus sequences containing fluorescent protein were fused to HRH1 (SEQ ID NO: 27), OxtR (SEQ ID NO: 29), DRD2, B2AR, and HTR4 (SEQ ID NO: 28) at specific positions, respectively. Changes in signal generated by these fusion polypeptides in perfusion experiments with corresponding receptor agonists were observed."}, "[6]": {"molecular_target": "T1, G protein-coupled receptor (M3R, HRH1, OxtR, DRD2, B2AR, HTR4) (Homo sapiens, UniProt P14416)", "T1 construct": "expressed in transfected cells; host or cells: HEK293T", "T1 sequence (P14416 with tags, fused parts or gaps)": "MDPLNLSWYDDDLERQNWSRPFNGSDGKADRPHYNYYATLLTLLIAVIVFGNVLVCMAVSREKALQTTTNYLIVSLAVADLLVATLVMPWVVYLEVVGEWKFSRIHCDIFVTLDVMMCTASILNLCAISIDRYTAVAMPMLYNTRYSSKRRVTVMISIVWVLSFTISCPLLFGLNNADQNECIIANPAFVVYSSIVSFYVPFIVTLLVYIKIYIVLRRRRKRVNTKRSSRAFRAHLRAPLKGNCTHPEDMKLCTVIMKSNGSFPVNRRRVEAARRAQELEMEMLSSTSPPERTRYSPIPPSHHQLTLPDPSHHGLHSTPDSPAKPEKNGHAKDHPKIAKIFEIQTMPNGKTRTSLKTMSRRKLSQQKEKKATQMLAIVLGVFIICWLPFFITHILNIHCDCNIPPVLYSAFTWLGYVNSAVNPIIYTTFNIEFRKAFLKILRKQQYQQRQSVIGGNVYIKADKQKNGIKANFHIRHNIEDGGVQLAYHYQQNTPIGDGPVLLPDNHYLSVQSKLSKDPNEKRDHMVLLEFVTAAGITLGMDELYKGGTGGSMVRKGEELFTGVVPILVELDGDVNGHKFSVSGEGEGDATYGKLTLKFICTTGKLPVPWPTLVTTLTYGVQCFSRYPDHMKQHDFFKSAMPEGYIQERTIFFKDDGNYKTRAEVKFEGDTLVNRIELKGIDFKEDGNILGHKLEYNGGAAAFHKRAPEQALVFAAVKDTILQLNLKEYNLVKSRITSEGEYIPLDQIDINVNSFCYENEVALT", "test": "GRAB sensors with fluorescent protein at the GPCR C-terminus, perfusion with receptor agonists in HEK293T cells", "assay_type": "cell-based", "settings": "20 μM Dopamine", "text": "as §1, §2"}},
  "note": "Positions count from the first letter of the chain named. Names may count otherwise. Read-outs that look alike come from different tables or passages of the source.",
  "data": [
    {"molecule": "B1", "values": [
      {"measurement": "EC50", "setting": "[1]; NE dose-dependent curve, read-out: ligand affinity", "value": "~100", "unit": "nM"},
      {"measurement": "change in fluorescence signal", "setting": "[2]", "value": 20, "unit": "%"}
    ]},
    {"molecule": "B2", "values": [
      {"measurement": "EC50", "setting": "[1]; NE 1 nM to 1 mM, Boltzmann fit, read-out: EC50 for norepinephrine", "value": 900, "unit": "nM"},
      {"measurement": "change in fluorescence signal on cell membrane and dendritic spines", "setting": "[3]; 100 μM NE perfusion, neurons", "value": "about 200%"},
      {"measurement": "response of cell body", "setting": "[3]; 100 μM NE perfusion, neurons", "value": "about 60%"},
      {"measurement": "EC50", "setting": "[3]; neuronal cell body, NE 10 nM to 100 μM, read-out: ligand affinity", "value": 790, "unit": "nM"},
      {"measurement": "fluorescence signal change", "setting": "[4]; 100 μM NE perfusion", "value": "greater than 300%"},
      {"measurement": "EC50", "setting": "[4]; NE 1 nM to 100 μM, read-out: affinity", "value": 500, "unit": "nM"},
      {"measurement": "EC50", "setting": "[4]; different concentrations of norepinephrine, read-out: affinity for the ligand", "value": "~500", "unit": "nM"}
    ]},
    {"molecule": "B3", "values": [
      {"measurement": "change in fluorescence signal", "setting": "[5]; 1 μM Oxytocin", "value": 10, "unit": "%"}
    ]},
    {"molecule": "B4", "values": [
      {"measurement": "change (decrease) in fluorescence signal", "setting": "[6]", "value": 20, "unit": "%"}
    ]},
    {"molecule": "B5", "values": [
      {"measurement": "change in fluorescence signal", "setting": "[5]; 10 μM 5HT", "value": 10, "unit": "%"}
    ]}
  ]
}
